Data on 73 sequences can be found in paper PMC5892938.

Some of the results follow. At the low end of the ranking the order means little.

The experiment concerns the target GST-SBP-SLBP (stem-loop binding protein) (UniProt Q14493). Briefly: targeted RNA Bind-n-Seq.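 Also: DESeq read counts versus GST-SBP nonspecific binding control pulldown.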 To be noted: RBNS binding buffer: 25 mM Tris pH 7.5, 150 mM KCl, 3 mM MgCl2, 0.1% Tween, 0.5 mg/mL BSA, 1 mM DTT; 27 nM protein, 750 pM RNA pool; temperature not stated; high values mean tight binding.
For “GGUCACGUCUCAAUCAACUCCCUCGAGGGGGGGAAAACCCCUUUACCCUCACUAUCAACAGCUCGCAGUCAAG”, the binding signal (log2 fold change) was determined as 0.0703.
On to “GGUCACGUCUCAAUCAACUCAACUUCCAGGGAAACCCCUGGCAUACUCAACAGCUCGCAGUCAAG”, for which the binding signal (log2 fold change) is -0.0077.
The result for “GGUCACGUCUCAAUCAACUCAAGUCCAGGAGUUUCCUCCUGUUUAUUCAACAGCUCGCAGUCAAG” reads -0.0517.
“GGUCACGUCUCAAUCAACUCAACUCCAGGAGUUUCCUCCUGCAAAUUCAACAGCUCGCAGUCAAG”: the binding signal (log2 fold change) amounted to 0.23.
With “GGUCACGUCUCAAUCAACUCCUCGGAGGGGGGGAAAACCCCUUUACCCUCAACAUCAACAGCUCGCAGUCAAG”, the binding signal (log2 fold change) was -0.359.
As for “GGUCACGUCUCAAUCAACUCAAUCGAGGGGGGGAAAACCCCUUUACCCUCAUACUCAACAGCUCGCAGUCAAG”, the binding signal (log2 fold change) is -0.164.
For “GGUCACGUCUCAAUCAACUCCCAAGAGGGGGGGAAAACCCCUUUACCCUCAAUAUCAACAGCUCGCAGUCAAG” the value was -0.367.
As to “GGUCACGUCUCAAUCAACUCAUUAGAGGGGGGGAAAACCCCUUUACCCUCCACAUCAACAGCUCGCAGUCAAG”, the binding signal (log2 fold change) came out at 0.171.
Turning to “GGUCACGUCUCAAUCAACUCAAUAGAGGGGGGGAAAACCCCUUUGCCCUCAAAAUCAACAGCUCGCAGUCAAG”, the binding signal (log2 fold change) is -0.134.
Consider “GGUCACGUCUCAAUCAACUCUAUAGAGGGGGGGAAAACCCCUUUACCCUCGUCCUCAACAGCUCGCAGUCAAG”, for which the binding signal (log2 fold change) was -0.378.
Take “GGUCACGUCUCAAUCAACUCAUGUCCAGGAGUUUUCUCCUGUAAAUUCAACAGCUCGCAGUCAAG”: the binding signal (log2 fold change) is -0.0987.
For the sequence “GGUCACGUCUCAAUCAACUCAAUCUCCAGGGAAAACCCUGGCAUAUUCAACAGCUCGCAGUCAAG”, the binding signal (log2 fold change) is 0.0278.
As to “GGUCACGUCUCAAUCAACUCUAUUUCCAGGGAAAGCCCUGGUUUUUUCAACAGCUCGCAGUCAAG”, the binding signal (log2 fold change) was -0.313.
As to “GGUCACGUCUCAAUCAACUCAAUCUCAGGAGUUUUCUCCUGCAUUUUCAACAGCUCGCAGUCAAG”, the binding signal (log2 fold change) was found to be 0.0346.
As to “GGUCACGUCUCAAUCAACUCACAAGAGGGGGGGAAAACCCCUUUGCCCUCAAUAUCAACAGCUCGCAGUCAAG”, the binding signal (log2 fold change) was -0.158.
With “GGUCACGUCUCAAUCAACUCAUCUCCCAGGGAAACCCCUGGUAAAUUCAACAGCUCGCAGUCAAG”, the binding signal (log2 fold change) is -0.11.
For “GGUCACGUCUCAAUCAACUCUUCGUCCAGGGAAAGCCCUGGUUUAUUCAACAGCUCGCAGUCAAG”, the binding signal (log2 fold change) is 0.0572.
With “GGUCACGUCUCAAUCAACUCAUCCCCCAGGGAAACCCCUGGUAAACUCAACAGCUCGCAGUCAAG”, the binding signal (log2 fold change) was -0.13.
For “GGUCACGUCUCAAUCAACUCAUCUUCCAGGGAAACCCCUGGUUUACUCAACAGCUCGCAGUCAAG” the value was -0.00345; for “GGUCACGUCUCAAUCAACUCUUUUUCAGGAGUUUCCUCCUGUUAUUUCAACAGCUCGCAGUCAAG”, 0.0402.
For “GGUCACGUCUCAAUCAACUCUUUCUCAGGAGUUUCCUCCUGCAUAUUCAACAGCUCGCAGUCAAG” the value was 0.0393; for “GGUCACGUCUCAAUCAACUCUUUCCCCAGGGAAACCCCUGGUAAUGUCAACAGCUCGCAGUCAAG”, -0.0368; for “GGUCACGUCUCAAUCAACUCUUCUUCCAGGGAAAACCCUGGCUAAUUCAACAGCUCGCAGUCAAG”, 0.193.
Take “GGUCACGUCUCAAUCAACUCUUUCUCAGGAGUUUUCUCCUGUUUUCUCAACAGCUCGCAGUCAAG”: the binding signal (log2 fold change) is -0.0748.
As for “GGUCACGUCUCAAUCAACUCUACUCCCAGGGAAAGCCCUGGCAAUGUCAACAGCUCGCAGUCAAG”, the binding signal (log2 fold change) is 0.0158.
Take “GGUCACGUCUCAAUCAACUCUUCUUCCAGGGAAAACCCUGGUUUAUUCAACAGCUCGCAGUCAAG”: the binding signal (log2 fold change) was -0.0265.
Take “GGUCACGUCUCAAUCAACUCAUCCCCCAGGGAAAACCCUGGUAUACUCAACAGCUCGCAGUCAAG”: the binding signal (log2 fold change) came to 0.0596.
For “GGUCACGUCUCAAUCAACUCCAAAGAGGGGGGGAAAACCCCUUUGCCCUCACAAUCAACAGCUCGCAGUCAAG” the value was 0.159; for “GGUCACGUCUCAAUCAACUCAUCCCCAGGAGUUUUCUCCUGUUAUCUCAACAGCUCGCAGUCAAG”, 0.131; for “GGUCACGUCUCAAUCAACUCUUCUCCCAGGGAAAACCCUGGUAUUCUCAACAGCUCGCAGUCAAG”, 0.000775.
On to “GGUCACGUCUCAAUCAACUCAUUCCCAGGAGUUUCCUCCUGCUAUUUCAACAGCUCGCAGUCAAG”, for which the binding signal (log2 fold change) was -0.138.
For “GGUCACGUCUCAAUCAACUCAAUAGAGGGGGGGAAAACCCCUUUACCCUCAUCGUCAACAGCUCGCAGUCAAG” the value was -0.0795; for “GGUCACGUCUCAAUCAACUCUUCCCCCAGGGAAAUCCCUGGCAUACUCAACAGCUCGCAGUCAAG”, 0.114.
Consider “GGUCACGUCUCAAUCAACUCAAGUCCAGGAGUUUUCUCCUGCUUAUUCAACAGCUCGCAGUCAAG”, for which the binding signal (log2 fold change) was -0.187.
Turning to “GGUCACGUCUCAAUCAACUCAUUCGAGGGGGGGAAAACCCCUUUACCCUCAUUUUCAACAGCUCGCAGUCAAG”, the binding signal (log2 fold change) is -0.131.
For “GGUCACGUCUCAAUCAACUCUCUCGAGGGGGGGAAAACCCCUUUACCCUCAAAAUCAACAGCUCGCAGUCAAG”, the binding signal (log2 fold change) was -0.0387.
For “GGUCACGUCUCAAUCAACUCCCUAGAGGGGGGGAAAACCCCUUUACCCUCCACGUCAACAGCUCGCAGUCAAG” the value was 0.14; for “GGUCACGUCUCAAUCAACUCAUCCUCCAGGGAAAACCCUGGUUAUUUCAACAGCUCGCAGUCAAG”, 0.0965.
Take “GGUCACGUCUCAAUCAACUCUAAAGAGGGGGGGAAAACCCCUUUUCCCUCAUAAUCAACAGCUCGCAGUCAAG”: the binding signal (log2 fold change) was 0.0899.
In the case of “GGUCACGUCUCAAUCAACUCAUUCUCCAGGGAAAACCCUGGCAUUCUCAACAGCUCGCAGUCAAG”, the binding signal (log2 fold change) is -0.171.
For the sequence “GGUCACGUCUCAAUCAACUCUAUCCCCAGGGAAAUCCCUGGCAUUCUCAACAGCUCGCAGUCAAG”, the binding signal (log2 fold change) is -0.228.
As for “GGUCACGUCUCAAUCAACUCAAUCCCAGGAGUUUUCUCCUGUAAUGUCAACAGCUCGCAGUCAAG”, the binding signal (log2 fold change) is -0.215.
Turning to “GGUCACGUCUCAAUCAACUCAAUUCCAGGAGUUUUCUCCUGCAUAUUCAACAGCUCGCAGUCAAG”, the binding signal (log2 fold change) is 0.128.
As to “GGUCACGUCUCAAUCAACUCUUUUCCCAGGGAAAUCCCUGGCUAUUUCAACAGCUCGCAGUCAAG”, the binding signal (log2 fold change) is -0.0809.
Take “GGUCACGUCUCAAUCAACUCUAUCUCAGGAGUUUCCUCCUGUAUACUCAACAGCUCGCAGUCAAG”: the binding signal (log2 fold change) worked out at 0.138.
For the sequence “GGUCACGUCUCAAUCAACUCAUGUCCAGGAGUUUCCUCCUGCUAUUUCAACAGCUCGCAGUCAAG”, the binding signal (log2 fold change) was -0.126.
As to “GGUCACGUCUCAAUCAACUCUUCUCCCAGGGAAACCCCUGGUAAAUUCAACAGCUCGCAGUCAAG”, the binding signal (log2 fold change) is -0.306.
“GGUCACGUCUCAAUCAACUCUCAAGAGGGGGGGAAAACCCCUUUACCCUCAUAAUCAACAGCUCGCAGUCAAG”: the binding signal (log2 fold change) stood at 0.0676.
“GGUCACGUCUCAAUCAACUCUAUCUCCAGGGAAAACCCUGGUAUACUCAACAGCUCGCAGUCAAG”: the binding signal (log2 fold change) is -0.151.
For the sequence “GGUCACGUCUCAAUCAACUCUUCCGCAGGAGUUUUCUCCUGGUAUCUCAACAGCUCGCAGUCAAG”, the binding signal (log2 fold change) amounted to 0.0988.
Regarding “GGUCACGUCUCAAUCAACUCAUUCUCAGGAGUUUCCUCCUGCUUAUUCAACAGCUCGCAGUCAAG”, the binding signal (log2 fold change) was -0.0944.
For the sequence “GGUCACGUCUCAAUCAACUCCUCAGAGGGGGGGAAAACCCCUUUACCCUCACCGUCAACAGCUCGCAGUCAAG”, the binding signal (log2 fold change) was -0.457.
With “GGUCACGUCUCAAUCAACUCAUUUUCAGGAGUUUACUCCUGUUUAUUCAACAGCUCGCAGUCAAG”, the binding signal (log2 fold change) turned out to be 0.0507.
With “GGUCACGUCUCAAUCAACUCAUUCCCCAGGGAAACCCCUGGCAUUCUCAACAGCUCGCAGUCAAG”, the binding signal (log2 fold change) turned out to be 0.113.
For the sequence “GGUCACGUCUCAAUCAACUCCCACGAGGGGGGGAAAACCCCUUUACCCUCUCAAUCAACAGCUCGCAGUCAAG”, the binding signal (log2 fold change) worked out at 0.362.
As for “GGUCACGUCUCAAUCAACUCUUCCUCCAGGGAAAACCCUGGUUUACUCAACAGCUCGCAGUCAAG”, the binding signal (log2 fold change) stood at 0.0285.
The result for “GGUCACGUCUCAAUCAACUCAUCUUCCAGGGAAAACCCUGGCAAUUUCAACAGCUCGCAGUCAAG” reads 0.0291; that for “GGUCACGUCUCAAUCAACUCUAUCCCCAGGGAAAACCCUGGCAUAUUCAACAGCUCGCAGUCAAG”, -0.164.
Regarding “GGUCACGUCUCAAUCAACUCAUCCUCAGGAGUUUACUCCUGCUAUUUCAACAGCUCGCAGUCAAG”, the binding signal (log2 fold change) worked out at 0.0661.
Consider “GGUCACGUCUCAAUCAACUCAUCCUCAGGAGUUUGCUCCUGUAUUCUCAACAGCUCGCAGUCAAG”, for which the binding signal (log2 fold change) amounted to 0.139.
With “GGUCACGUCUCAAUCAACUCAAUAGAGGGGGGGAAAACCCCUUUACCCUCACUCUCAACAGCUCGCAGUCAAG”, the binding signal (log2 fold change) was -0.539.
On to “GGUCACGUCUCAAUCAACUCUUCUCCCAGGGAAACCCCUGGCAAACUCAACAGCUCGCAGUCAAG”, for which the binding signal (log2 fold change) is -0.0371.
For “GGUCACGUCUCAAUCAACUCUUUCCCCAGGGAAAACCCUGGCUAUGUCAACAGCUCGCAGUCAAG”, the binding signal (log2 fold change) is -0.0315.
Consider “GGUCACGUCUCAAUCAACUCAUAAGAGGGGGGGAAAACCCCUUUGCCCUCCGUAUCAACAGCUCGCAGUCAAG”, for which the binding signal (log2 fold change) was determined as 0.269.
As to “GGUCACGUCUCAAUCAACUCAGUUUCAGGAGUUUCCUCCUGCUUUCUCAACAGCUCGCAGUCAAG”, the binding signal (log2 fold change) is -0.0496.
For the sequence “GGUCACGUCUCAAUCAACUCAAAAGAGGGGGGGAAAACCCCUUUACCCUCCACAUCAACAGCUCGCAGUCAAG”, the binding signal (log2 fold change) was found to be 0.0915.
As to “GGUCACGUCUCAAUCAACUCCAUAGAGGGGGGGAAAACCCCUUUACCCUCCUUAUCAACAGCUCGCAGUCAAG”, the binding signal (log2 fold change) is -0.388.
On to “GGUCACGUCUCAAUCAACUCUAUAGAGGGGGGGAAAACCCCUUUGCCCUCAAUUUCAACAGCUCGCAGUCAAG”, for which the binding signal (log2 fold change) was -0.222.
In the case of “GGUCACGUCUCAAUCAACUCUUUUCCAGGAGUUUUCUCCUGUUAACUCAACAGCUCGCAGUCAAG”, the binding signal (log2 fold change) was -0.123.
For the sequence “GGUCACGUCUCAAUCAACUCUAAAGAGGGGGGGAAAACCCCUUUACCCUCCGAAUCAACAGCUCGCAGUCAAG”, the binding signal (log2 fold change) is -0.644.
With “GGUCACGUCUCAAUCAACUCUUCCUCCAGGGAAAUCCCUGGCUUACUCAACAGCUCGCAGUCAAG”, the binding signal (log2 fold change) is -0.00661.
In the case of “GGUCACGUCUCAAUCAACUCUUUUUCAGGAGUUUCCUCCUGUUUACUCAACAGCUCGCAGUCAAG”, the binding signal (log2 fold change) was determined as 0.241.
“GGUCACGUCUCAAUCAACUCUUUUCCCAGGGAAAACCCUGGUAUAUUCAACAGCUCGCAGUCAAG”: the binding signal (log2 fold change) was -0.0799.
